Source: the antibiotic and cytotoxicity screens of Wong et al. (2023)
Some of the results follow.

Columns and labels:
HSkMC = human skeletal muscle cells; experiment: cytotoxicity call (relative viability < 0.9); conditions: 10 µM
HepG2 = experiment: cytotoxicity call (relative viability < 0.9); conditions: 10 µM
S. aureus RN4220 = experiment: growth inhibition call (relative growth <= 0.2); conditions: 50 µM

Row | Compound | cytotoxicity call (HSkMC) | cytotoxicity call (HepG2) | growth inhibition call (S. aureus RN4220)
1 | O=C1OC(CN2CCOCC2)CN1N=Cc1ccc([N+](=O)[O-])o1 (stereo not drawn) | inactive | active | active
2 | C[C@H](CO)N1C[C@H](C)[C@H](CN(C)S(=O)(=O)c2cccs2)OCCCC[C@H](C)Oc2ccc(NC(=O)Nc3ccccc3)cc2C1=O | inactive | inactive | inactive
3 | Cc1noc(C)c1NC(=O)N(C)C[C@H]1Oc2c(NS(=O)(=O)c3ccccc3)cccc2C(=O)N([C@H](C)CO)C[C@H]1C | inactive | inactive | inactive
4 | O=C(C[C@@H]1CC=CC[C@H](NC(=O)OCC2c3ccccc3-c3ccccc32)C(=O)OC[C@H](Cc2ccccc2)NC1=O)N[C@H](CO)Cc1ccccc1 | inactive | inactive | inactive
5 | OC[C@H]1O[C@H](O)C[C@@H](O)[C@@H]1O | inactive | inactive | inactive
6 | C[C@@H]1CN([C@@H](C)CO)C(=O)c2cc(NC(=O)CCC(F)(F)F)ccc2O[C@H]1CN(C)Cc1ccc(Cl)c(Cl)c1 | inactive | active | inactive
7 | COc1ccc(NC(=O)N(C)C[C@@H]2Oc3ccc(NC(=O)Nc4cccc5ccccc45)cc3CC(=O)N([C@H](C)CO)C[C@H]2C)cc1 | inactive | inactive | inactive
8 | C[C@H](CO)N1C[C@H](C)[C@@H](CN(C)C(=O)CCC(F)(F)F)OCCCC[C@H](C)Oc2ccc(NC(=O)Nc3ccccc3)cc2C1=O | inactive | inactive | inactive
9 | N[C@@H]1c2ccccc2C[C@@H]1O | inactive | inactive | inactive
10 | COc1ccc(CN(C)C[C@H]2Oc3ccc(NC(=O)Cn4cnnn4)cc3CC(=O)N([C@@H](C)CO)C[C@H]2C)cc1 | inactive | inactive | inactive
11 | CCC(=O)N[C@@H]1CC[C@H](CC(=O)OC)O[C@@H]1CO | inactive | inactive | inactive
12 | Nc1ccc(S(=O)(=O)Nc2nccs2)cc1 | inactive | inactive | inactive
13 | C[C@@H]1CCCCO[C@@H](CN(C)C(=O)Nc2ccc(C(F)(F)F)cc2)[C@@H](C)CN([C@H](C)CO)C(=O)c2cc(NS(=O)(=O)c3ccc(F)cc3)ccc2O1 | inactive | active | inactive
14 | C[C@@H]1CN([C@@H](C)CO)C(=O)c2cc(NC(=O)Nc3ccccc3)ccc2O[C@@H](C)CCCCO[C@@H]1CN(C)C(=O)C1CCCCC1 | inactive | inactive | inactive
15 | COc1ccc(S(=O)(=O)Nc2ccc3c(c2)[C@H]2C[C@@H](CC(=O)NCC4CC4)O[C@@H](CO)[C@H]2O3)cc1 | inactive | inactive | inactive
16 | Cc1ncc(CO)c(/C=N/O)c1O | inactive | inactive | inactive
17 | Cc1noc(C)c1NC(=O)Nc1ccc2c(c1)C(=O)N([C@@H](C)CO)C[C@@H](C)[C@@H](CN(C)CC1CCCCC1)OCCCC[C@@H](C)O2 | inactive | inactive | inactive
18 | C[C@@H]1CN([C@@H](C)CO)C(=O)Cc2cc(NC(=O)Nc3ccccc3)ccc2O[C@H]1CN(C)Cc1ccc(C(=O)Nc2ccccc2N)cc1 | inactive | inactive | inactive
19 | Cc1noc(C)c1NC(=O)Nc1ccc2c(c1)C(=O)N([C@@H](C)CO)C[C@@H](C)[C@H](CN(C)C(=O)NC(C)C)O2 | inactive | inactive | inactive
20 | CC(N)CCCC(C)(C)O.Cl (stereo not drawn) | inactive | inactive | inactive
21 | C[C@@H]1CN([C@@H](C)CO)C(=O)Cc2cc(NC(=O)Nc3ccc(C(F)(F)F)cc3)ccc2O[C@H]1CN(C)CC1CCCCC1 | active | active | inactive
22 | C=CCC[C@H](Cc1ccc(F)cc1)C(=O)OC[C@@H](NC(=O)[C@H](CC=C)CC(=O)N(CCO)Cc1ccccc1)c1ccccc1 | inactive | inactive | inactive
23 | COc1ccc(S(=O)(=O)N(C)C[C@H]2Oc3ccc(NS(=O)(=O)c4c(C)noc4C)cc3C(=O)N([C@@H](C)CO)C[C@@H]2C)cc1 | inactive | inactive | inactive
24 | O=C(C[C@@H]1CC[C@H]2[C@@H](COC[C@H](O)CN2Cc2cccc(C(F)(F)F)c2)O1)NCCc1ccncc1 | inactive | inactive | inactive
25 | COc1ccc(S(=O)(=O)N(C)C[C@@H]2Oc3ncc(-c4cccc(F)c4)cc3C(=O)N([C@H](C)CO)C[C@@H]2C)cc1 | inactive | inactive | inactive
26 | CC(C)C#Cc1ccc2c(c1)O[C@@H](CN(C)S(=O)(=O)c1cn(C)cn1)[C@@H](C)CN([C@H](C)CO)S2(=O)=O | inactive | inactive | inactive
